# Measurements published in the BET-seq Pho4 binding data (Le et al. 2018).
# The other results are listed elsewhere or left out. These are noisy estimates, calculated here from bound and input reads.
# Target: T1, Pho4 (S. cerevisiae) (UniProt P07270)
# T1 sequence: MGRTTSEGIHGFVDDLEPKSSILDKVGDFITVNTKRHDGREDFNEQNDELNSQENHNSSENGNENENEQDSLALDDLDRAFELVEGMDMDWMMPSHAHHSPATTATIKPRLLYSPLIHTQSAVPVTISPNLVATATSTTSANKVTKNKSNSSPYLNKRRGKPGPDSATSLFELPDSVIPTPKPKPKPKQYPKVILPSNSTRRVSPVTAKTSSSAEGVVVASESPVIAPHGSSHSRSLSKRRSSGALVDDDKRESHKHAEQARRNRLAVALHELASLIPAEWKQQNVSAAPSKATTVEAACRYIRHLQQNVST
# Assay: relative binding free energy (BET-seq); higher = weaker binding
# Details: reference: library average
row,Sequence,relative binding free energy [kcal/mol]
1,AGTTTCACGTGAGTGC,0.43
2,GTAGTCACGTGGACAT,0.18
3,GGCTTCACGTGTAGTT,0.38
4,GGATTCACGTGTATGC,0.29
5,AGGGACACGTGGGGGT,-0.07
6,TGTGACACGTGGAGTT,0
7,CGAGGCACGTGTCGGA,-0.02
8,TAATACACGTGTGTAG,0.13
9,TGATCCACGTGGGTTT,-0.05
10,TTCTCCACGTGGTGTA,-0.05
11,TATTCCACGTGGGTAT,-0.13
12,ACGTGCACGTGTGTAT,-0.15
13,GAGTTCACGTGGGAGG,0.39
14,GTAATCACGTGAGGCG,0.3
15,GTGGTCACGTGGACGG,0.13
16,TAGCGCACGTGGGAGT,-0.2
17,AATTGCACGTGTCGGT,0.06
18,TGATGCACGTGCTGAT,-0.05
19,GAAGGCACGTGTGGCG,0
20,GGGAGCACGTGCATTG,-0.01
21,CAAGGCACGTGTGGGA,-0.11
22,AAAGGCACGTGTTAGT,0.02
23,AGGTGCACGTGGGATG,-0.14

row,Sequence,relative binding free energy [kcal/mol]
1,CTTAACACGTGGTCGT,-0.01
2,TAGGGCACGTGGGTAT,-0.24
3,GAAGTCACGTGTGTGT,0.28
4,TTGGTCACGTGAGTTG,0.26
5,AGAAGCACGTGGTTAG,0
6,ACTGGCACGTGTGAAT,0.03
7,GTGTACACGTGGGAGA,0.02
8,CGGGGCACGTGGGTAC,-0.37
9,TCGTCCACGTGTGGGA,0.12
10,GAGTACACGTGGATGT,0.13
11,GGGGTCACGTGTATAG,0.06
12,GTGTCCACGTGGATGA,0.19
13,GTGATCACGTGAGTAG,0.29
14,GCGGTCACGTGACTGT,0.33
15,CGTGACACGTGCAGGT,-0.07
16,TTGTGCACGTGAGTTT,0.28
17,ATGTGCACGTGAAGGC,0.09
18,TATATCACGTGTGAGT,0.18
19,CGATACACGTGGGGGG,-0.26
20,ACTATCACGTGAGGTT,0.39
21,GGGGACACGTGGCTGA,-0.1
22,CTAGACACGTGGTTTG,-0.09
23,GGAAGCACGTGATGAT,0.11

row,Sequence,relative binding free energy [kcal/mol]
1,GTGCGCACGTGGAGCG,-0.03
2,ATAGGCACGTGAGGAG,0.05
3,ATGCGCACGTGATTGG,0.07
4,TTAGTCACGTGATGGG,0.26
5,CTAGGCACGTGTTTTA,0.05
6,TTTTACACGTGGGTCA,0.06
7,AGAATCACGTGGGCGG,-0.13
8,GTAAACACGTGGCTGG,0.02
9,TGTGTCACGTGAGCTC,0.24
10,ATCGTCACGTGATGGT,0.12
11,CCGGACACGTGAGGGT,0.18
12,TCGTGCACGTGTGTGC,-0.08
13,TTTAGCACGTGTGCGT,-0.08
14,TCTGTCACGTGGCTTT,0.05
15,TCGGGCACGTGACTGG,0.05
16,TTTTTCACGTGCGGTC,0.32
17,GGTCTCACGTGTAGGA,0.2
18,GGAAGCACGTGGATGC,0.06
19,AGTGGCACGTGATGTA,-0.01
20,GTTTACACGTGTCTGA,0.14
21,GTACGCACGTGATAGG,0.14
22,AAGTTCACGTGTGTGA,0.14
23,TTGTACACGTGTATTC,0.07

row,Sequence,relative binding free energy [kcal/mol]
1,ATAGTCACGTGGGAGT,0
2,AGTCGCACGTGTGAGG,0.02
3,TAGTCCACGTGTTTTA,0.13
4,AATCGCACGTGTGGGG,-0.08
5,TGGTGCACGTGCTTGC,-0.1
6,AGGCACACGTGGGGCT,-0.03
7,GAACGCACGTGGGTTG,-0.17
8,GGGTGCACGTGTCGTC,0.03
9,ATGGTCACGTGTATAG,0.08
10,GGATGCACGTGGGTGT,-0.16
11,GGATTCACGTGGGTGG,0.19
12,AGGGCCACGTGACTGG,0.08
13,GGCTGCACGTGTATGG,0.18
14,TTCTCCACGTGTGTTT,0.18
15,GAGGTCACGTGTGTAA,0.27
16,CTAGGCACGTGTTTAG,-0.23
17,CGTAACACGTGAGTTG,0.33
18,TGTAGCACGTGGGTAG,-0.13
19,GGGTTCACGTGTTTGA,0.32
20,TTGTACACGTGAAGGT,0.22
21,TGGTTCACGTGTGTAT,0.37
22,ATTGTCACGTGGGCGG,-0.07
23,TATGTCACGTGGACTT,-0.01

row,Sequence,relative binding free energy [kcal/mol]
1,ATGGGCACGTGAATGT,0.06
2,GTTTGCACGTGCGAGG,0.01
3,TTAGGCACGTGGTGTG,-0.26
4,ATGTGCACGTGGGGGT,-0.19
5,GTAGACACGTGGATTT,0.27
6,AGATTCACGTGGGTTT,0.23
7,ATCTTCACGTGTAGGG,0.12
8,CTAGCCACGTGGGGTT,-0.2
9,AAAATCACGTGGGGGT,0.14
10,TAGGGCACGTGGGTGA,-0.24
11,GGGCTCACGTGATTGT,0.29
12,GGGTCCACGTGCCGGG,-0.14
13,ACATTCACGTGTCGGT,0.3
14,GGGATCACGTGGTCTG,0.22
15,TTTATCACGTGCATAG,0.1
16,GTGGGCACGTGACGCG,0.01
17,GGGAGCACGTGTATGC,-0.08
18,AAGGTCACGTGTTGTG,0.2
19,TCGTTCACGTGAGGTT,0.44
20,GGGGTCACGTGGTAGA,0.14
21,GGTGGCACGTGCGCGG,-0.12
22,GTTGTCACGTGACATA,0.28
23,ATTTGCACGTGATGGG,0.16
